Experimental data reported in the supplement of paper PMC12217912.
Some of the results follow. Sequences were assembled here from the parent chain. Values near 0.05 are background.

B1: TEV protease; numbered along this chain (parent)
chain: MGESLFKGPRDYNPISSSICHLTNESDGHTTSLYGIGFGPFIITNKHLFRRNNGTLVVQSLHGVFKVKDTTTLQQHLVDGRDMIIIRMPKDFPPFPQKLKFREPQREERICLVTTNFQTKSMSSMVSDTSCTFPSGDGIFWKHWIQTKDGQCGSPLVSTRDGFIVGIHSASNFTNTNNYFTSVPKNFMELLTNQEAQQWVSGWRLNADSVLWGGHKVFMVKPEEPFQPVKEATQL

Variants of: B1
Experiment: raw area under fraction-flipped curve 0-4 h after induction (AUC4h, not background-subtracted), DNA-recorder readout of cleavage of the substrate (dimensionless); higher = more cleavage of the substrate by the protease variant
Conditions: temperature: 34 °C; time window: 0-4 h after rhamnose induction
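Also: Bxb1 expression induced with 0.2% (w/v) L-rhamnose at OD600 near 0.5, cultures sampled hourly, flipped fraction per protease–substrate barcode pair counted by paired-end Illumina sequencing.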

Variant	area with substrate ECLYFQS	area with substrate EDLYFQS	area with substrate EKLYFQS	area with substrate EQLYFQS	area with substrate ESLYFQS	area with substrate EVLYFQS	area with substrate EWLYFQS	area with substrate ELLYFQS	area with substrate EELYFQS	area with substrate EHLYFQS
MGESLFKGPRDYNPISSSICHLTNESDGHTTSLYGIGFGPFIITNKHLFRRNNGTLVVQSLHGVFKVKDTTTLQQHLVDGRDMIIIRMPKDFPPFPQKLKFREPQREERICLVTTNFQTKSMSSMVSDTSCTFPSGDGIFWKHWIQTKDGQCMSPLVSTRDGFIVGIHSASNFTNTNNYFTSVPKNFMELLTNQEAQQWVSGWRLNADSVLWGGHKVFMVKPEEPFQPVKEATQL [G153M]	0.0549	0.0484	0.0486	0.0642	0.0936	0.0436	0.0483	–	–	–
MGESLFKGPRDYNPISSSICHLTNESDGHTTSLYGIGFGPFIITNKHLFRRNNGTLVVQSLHGVFKVKDTTTLQQHLVDGRDMIIIRMPKDFPPFPQKLKFREPQREERICLVTTNFQTKSMSSMVSDTSCTFPSGDGIFWKHWIQTKDGQCQSPLVSTRDGFIVGIHSASNFTNTNNYFTSVPKNFMELLTNQEAQQWVSGWRLNADSVLWGGHKVFMVKPEEPFQPVKEATQL [G153Q]	0.05	–	–	–	0.0598	–	–	0.0464	–	–
MGESLFKGPRDYNPISSSICHLTNESDGHTTSLYGIGFGPFIITNKHLFRRNNGTLVVQSLHGVFKVKDTTTLQQHLVDGRDMIIIRMPKDFPPFPQKLKFREPQREERICLVTTNFQTKSMSSMVSDTSCTFPSGDGIFWKHWIQTKDGQCTSPLVSTRDGFIVGIHSASNFTNTNNYFTSVPKNFMELLTNQEAQQWVSGWRLNADSVLWGGHKVFMVKPEEPFQPVKEATQL [G153T]	0.0514	0.0614	–	–	0.0497	0.0409	0.0488	0.0321	0.0607	0.141
MGESLFKGPRDYNPISSSICHLTNESDGHTTSLYGIGFGPFIITNKHLFRRNNGTLVVQSLHGVFKVKDTTTLQQHLVDGRDMIIIRMPKDFPPFPQKLKFREPQREERICLVTTNFQTKSMSSMVSDTSCTFPSGDGIFWKHWIQTKDGQCGAPLVSTRDGFIVGIHSASNFTNTNNYFTSVPKNFMELLTNQEAQQWVSGWRLNADSVLWGGHKVFMVKPEEPFQPVKEATQL [S154A]	0.0982	0.0948	0.107	0.148	0.0854	0.0973	0.0624	–	–	0.104
MGESLFKGPRDYNPISSSICHLTNESDGHTTSLYGIGFGPFIITNKHLFRRNNGTLVVQSLHGVFKVKDTTTLQQHLVDGRDMIIIRMPKDFPPFPQKLKFREPQREERICLVTTNFQTKSMSSMVSDTSCTFPSGDGIFWKHWIQTKDGQCGDPLVSTRDGFIVGIHSASNFTNTNNYFTSVPKNFMELLTNQEAQQWVSGWRLNADSVLWGGHKVFMVKPEEPFQPVKEATQL [S154D]	0.0775	–	–	0.062	–	0.0591	–	0.0662	–	0.074
MGESLFKGPRDYNPISSSICHLTNESDGHTTSLYGIGFGPFIITNKHLFRRNNGTLVVQSLHGVFKVKDTTTLQQHLVDGRDMIIIRMPKDFPPFPQKLKFREPQREERICLVTTNFQTKSMSSMVSDTSCTFPSGDGIFWKHWIQTKDGQCGIPLVSTRDGFIVGIHSASNFTNTNNYFTSVPKNFMELLTNQEAQQWVSGWRLNADSVLWGGHKVFMVKPEEPFQPVKEATQL [S154I]	0.0983	0.122	–	–	–	0.11	–	–	–	–
MGESLFKGPRDYNPISSSICHLTNESDGHTTSLYGIGFGPFIITNKHLFRRNNGTLVVQSLHGVFKVKDTTTLQQHLVDGRDMIIIRMPKDFPPFPQKLKFREPQREERICLVTTNFQTKSMSSMVSDTSCTFPSGDGIFWKHWIQTKDGQCGNPLVSTRDGFIVGIHSASNFTNTNNYFTSVPKNFMELLTNQEAQQWVSGWRLNADSVLWGGHKVFMVKPEEPFQPVKEATQL [S154N]	0.136	–	–	–	0.157	–	–	–	–	–
MGESLFKGPRDYNPISSSICHLTNESDGHTTSLYGIGFGPFIITNKHLFRRNNGTLVVQSLHGVFKVKDTTTLQQHLVDGRDMIIIRMPKDFPPFPQKLKFREPQREERICLVTTNFQTKSMSSMVSDTSCTFPSGDGIFWKHWIQTKDGQCGSGLVSTRDGFIVGIHSASNFTNTNNYFTSVPKNFMELLTNQEAQQWVSGWRLNADSVLWGGHKVFMVKPEEPFQPVKEATQL [P155G]	0.0787	0.0373	0.0598	–	0.0607	–	–	0.0402	0.0619	–
MGESLFKGPRDYNPISSSICHLTNESDGHTTSLYGIGFGPFIITNKHLFRRNNGTLVVQSLHGVFKVKDTTTLQQHLVDGRDMIIIRMPKDFPPFPQKLKFREPQREERICLVTTNFQTKSMSSMVSDTSCTFPSGDGIFWKHWIQTKDGQCGSPLVVTRDGFIVGIHSASNFTNTNNYFTSVPKNFMELLTNQEAQQWVSGWRLNADSVLWGGHKVFMVKPEEPFQPVKEATQL [S158V]	0.0532	0.0508	0.0318	0.0604	0.0543	0.0602	0.0662	0.046	0.0419	0.0642
MGESLFKGPRDYNPISSSICHLTNESDGHTTSLYGIGFGPFIITNKHLFRRNNGTLVVQSLHGVFKVKDTTTLQQHLVDGRDMIIIRMPKDFPPFPQKLKFREPQREERICLVTTNFQTKSMSSMVSDTSCTFPSGDGIFWKHWIQTKDGQCGSPLVSPRDGFIVGIHSASNFTNTNNYFTSVPKNFMELLTNQEAQQWVSGWRLNADSVLWGGHKVFMVKPEEPFQPVKEATQL [T159P]	0.138	–	–	–	0.116	–	–	–	–	0.129

Same assay, conditions: temperature: 34 °C; time window: 0-4 h after rhamnose induction

Variant	area with substrate EILYFQS	area with substrate EMLYFQS	area with substrate EPLYFQS	area with substrate ERLYFQS	area with substrate EYLYFQS	area with substrate EGLYFQS	area with substrate ETLYFQS	area with substrate EFLYFQS
MGESLFKGPRDYNPISSSICHLTNESDGHTTSLYGIGFGPFIITNKHLFRRNNGTLVVQSLHGVFKVKDTTTLQQHLVDGRDMIIIRMPKDFPPFPQKLKFREPQREERICLVTTNFQTKSMSSMVSDTSCTFPSGDGIFWKHWIQTKDGQCTSPLVSTRDGFIVGIHSASNFTNTNNYFTSVPKNFMELLTNQEAQQWVSGWRLNADSVLWGGHKVFMVKPEEPFQPVKEATQL [G153T]	0.0336	0.0444	0.0365	0.0442	0.0554	–	–	–
MGESLFKGPRDYNPISSSICHLTNESDGHTTSLYGIGFGPFIITNKHLFRRNNGTLVVQSLHGVFKVKDTTTLQQHLVDGRDMIIIRMPKDFPPFPQKLKFREPQREERICLVTTNFQTKSMSSMVSDTSCTFPSGDGIFWKHWIQTKDGQCGAPLVSTRDGFIVGIHSASNFTNTNNYFTSVPKNFMELLTNQEAQQWVSGWRLNADSVLWGGHKVFMVKPEEPFQPVKEATQL [S154A]	0.0786	0.107	0.0961	0.0584	0.109	0.089	0.0772	–
MGESLFKGPRDYNPISSSICHLTNESDGHTTSLYGIGFGPFIITNKHLFRRNNGTLVVQSLHGVFKVKDTTTLQQHLVDGRDMIIIRMPKDFPPFPQKLKFREPQREERICLVTTNFQTKSMSSMVSDTSCTFPSGDGIFWKHWIQTKDGQCGDPLVSTRDGFIVGIHSASNFTNTNNYFTSVPKNFMELLTNQEAQQWVSGWRLNADSVLWGGHKVFMVKPEEPFQPVKEATQL [S154D]	–	0.04	–	–	–	–	–	–
MGESLFKGPRDYNPISSSICHLTNESDGHTTSLYGIGFGPFIITNKHLFRRNNGTLVVQSLHGVFKVKDTTTLQQHLVDGRDMIIIRMPKDFPPFPQKLKFREPQREERICLVTTNFQTKSMSSMVSDTSCTFPSGDGIFWKHWIQTKDGQCGIPLVSTRDGFIVGIHSASNFTNTNNYFTSVPKNFMELLTNQEAQQWVSGWRLNADSVLWGGHKVFMVKPEEPFQPVKEATQL [S154I]	–	–	0.116	–	–	–	–	–
MGESLFKGPRDYNPISSSICHLTNESDGHTTSLYGIGFGPFIITNKHLFRRNNGTLVVQSLHGVFKVKDTTTLQQHLVDGRDMIIIRMPKDFPPFPQKLKFREPQREERICLVTTNFQTKSMSSMVSDTSCTFPSGDGIFWKHWIQTKDGQCGNPLVSTRDGFIVGIHSASNFTNTNNYFTSVPKNFMELLTNQEAQQWVSGWRLNADSVLWGGHKVFMVKPEEPFQPVKEATQL [S154N]	–	–	–	–	–	0.0654	–	–
MGESLFKGPRDYNPISSSICHLTNESDGHTTSLYGIGFGPFIITNKHLFRRNNGTLVVQSLHGVFKVKDTTTLQQHLVDGRDMIIIRMPKDFPPFPQKLKFREPQREERICLVTTNFQTKSMSSMVSDTSCTFPSGDGIFWKHWIQTKDGQCGSGLVSTRDGFIVGIHSASNFTNTNNYFTSVPKNFMELLTNQEAQQWVSGWRLNADSVLWGGHKVFMVKPEEPFQPVKEATQL [P155G]	0.0608	0.0752	0.0545	0.0696	0.0556	0.0457	–	–
MGESLFKGPRDYNPISSSICHLTNESDGHTTSLYGIGFGPFIITNKHLFRRNNGTLVVQSLHGVFKVKDTTTLQQHLVDGRDMIIIRMPKDFPPFPQKLKFREPQREERICLVTTNFQTKSMSSMVSDTSCTFPSGDGIFWKHWIQTKDGQCGSPLVVTRDGFIVGIHSASNFTNTNNYFTSVPKNFMELLTNQEAQQWVSGWRLNADSVLWGGHKVFMVKPEEPFQPVKEATQL [S158V]	0.0502	–	0.0584	0.0556	–	0.0456	–	0.0725
MGESLFKGPRDYNPISSSICHLTNESDGHTTSLYGIGFGPFIITNKHLFRRNNGTLVVQSLHGVFKVKDTTTLQQHLVDGRDMIIIRMPKDFPPFPQKLKFREPQREERICLVTTNFQTKSMSSMVSDTSCTFPSGDGIFWKHWIQTKDGQCGSPLVSPRDGFIVGIHSASNFTNTNNYFTSVPKNFMELLTNQEAQQWVSGWRLNADSVLWGGHKVFMVKPEEPFQPVKEATQL [T159P]	–	–	0.14	0.121	–	–	0.105	–
